Experimental data as given in PubChem BioAssay AID1345083 (National Center for Advancing Translational Sciences (NCATS), 2018).
“And” between values parts separate entries of the source, which are not always exact repeats. Equal values may be shown once. In all, about 94,000 compounds went through this assay and about 6,200 (6.6%) were called active. The shares of active, inactive and inconclusive entries below differ from those in the screen. Calls come from the whole dose curve; as a rule, active = well fitted inhibition curve with a large enough effect; inconclusive = small, poorly fitted or top-dose-only effect; inactive = flat fitted curve, though single readings scatter. Potencies beside an inconclusive call are fits to weak or partial responses and may not hold up.

assay: Cytotoxic Profiling in HEK 293 Cell Line of Diverse Libraries Using Quantitative High-Throughput Screening; settings: HEK 293 viability, ATP luminescence (CellTiter-Glo), 48-72 h; series mostly up to 115 µM; note: nearly all actives have a fitted effect of over 60% in size
How it was run: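 HEK 293 cells at 250 cells/well were exposed to compounds by pintool transfer for 48 or 72 hr at 37 degree Celsius, 5% CO2. Viability was read as ATP-coupled luminescence with CellTiter-Glo after 10 min at room temperature.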
Potency is the fitted concentration of half-maximal effect; tags give direction and shape of the fitted curve.

Compound | Potency
O=C(Cc1c[nH]c2ncc(-c3cn[nH]c3)cc12)NCc1cccnc1 | inactive
N#Cc1ccc([S+](=O)([O-])N2CCC3(CC2)OCCN(CC2CCOCC2)C3=O)cc1 | inactive
COc1ccc(Cn2c(C3CCN(C(=O)c4ccc(C)cc4)CC3)n[nH]c2=O)cc1 | inactive
COc1ccc(CC(=O)N2CCC3(CC2)CC(=O)N(c2ccccc2)c2ccccc2O3)cc1 | inconclusive: 79.4 µM [inhibitor, partial curve, poor fit]
O=C(c1ccccc1)N1CCCC1C(=O)N1CCCC1c1nc2ccncc2[nH]1 (stereo unspecified) | inactive
Cc1cn2nnc(C(=O)N3CCC(C(=O)Nc4ccc(F)c(F)c4)CC3)c2c(=O)[nH]1 | inactive
O=C(NCc1ccc(F)cc1)[C@@H]1COCC(=O)N1Cc1ccc(F)cc1 | inactive
COc1ccc(/C=C/c2ccc3c(c2)C(=O)N2CC[C@H](NC(=O)c4cnccn4)[C@H]2C(=O)N3)cc1 | inactive
O=C(N[C@@H]1CN(C(=O)NCc2ccccc2)CCC[C@H]1O)c1ccc(OCc2ccccc2)cc1 | inconclusive: 79.4 µM [inhibitor, partial curve, poor fit]
O=C(CN1C(=O)C(c2ccccc2)=NC12CCCC2)N1CCN(c2ccccc2)CC1 | inconclusive: 50.1 µM [inhibitor, partial curve, poor fit]
COc1cccc(-c2cc(C(=O)NCc3ccc4c(c3)OCO4)c3cnn(C)c3n2)c1 | inconclusive: 35.5 µM [inhibitor, full curve, poor fit]
O=[S+]([O-])(c1ccccc1)N1CC(Oc2ccc(F)cc2F)C1 | inactive
COc1cccc(C(=O)N2CCC3(CC2)N=C(c2ccc(C)cc2)NO3)c1 | inconclusive: 31.6 µM [inhibitor, partial curve]
O=C(NCc1ccc(F)cc1)C1CCN(c2nc3ncccc3o2)CC1 | inactive
Cc1ccc([S+](=O)([O-])N2CCCC(N3C(=O)c4c(c(C)nn4-c4ccccc4)C3C(C)C)C2)cc1 (stereo unspecified) | inactive
Cc1cnc(CCNC(=O)c2nccn2C)n1Cc1ccccc1 | inconclusive: 100 µM [inhibitor, single point]
Cc1ccc(NC(=O)c2ccc3c(c2)N(C)C2CCCCN2C3=O)cc1 (stereo unspecified) | inconclusive: 89.1 µM [inhibitor, single point]
CC1(C)CN(C(=O)CSC23CC4CC(CC(C4)C2)C3)CC1(C)O (stereo unspecified) | inactive
Cc1ccc(-c2ccccc2CN2CCC(C(=O)N3CCN(Cc4ccccc4)CC3)CC2)cc1Cl | inconclusive: 79.4 µM [inhibitor, partial curve, poor fit]
COc1ccc(CCC(=O)N2c3ccccc3CC2c2nc(C3CC3)no2)cc1 (stereo unspecified) | inconclusive: 50.1 µM [inhibitor, partial curve, poor fit]
O=C(c1cc(Cl)ccc1F)N1CCC(OC2CCN(Cc3ccccc3)CC2)CC1 | inconclusive: 79.4 µM [inhibitor, single point]
Cc1ccc(C(=O)N2CCCC(n3cc(-c4nc(C(C)C)no4)nn3)C2)cc1F (stereo unspecified) | inconclusive: 79.4 µM [inhibitor, single point]

Compound | Potency
CN(C)C(=O)N1CCC(C(=O)N2CCC(N3Cc4ccccc4C3=O)CC2)CC1 | inactive
Cc1ccccc1C(=O)N1CCC2(CC1)OCC(C(=O)N1CCCC1)N2C(=O)c1cccc(F)c1 (stereo unspecified) | inconclusive: 28.2 µM [inhibitor, single point]
CC(=O)Nc1ccc(C(=O)NC2CCN(c3cc(-c4cccs4)[nH]n3)C2)cc1 (stereo unspecified) | inactive
CCOc1ccccc1C(=O)NC1CCN(C(=O)c2cc3c(=O)[nH]c(C)cn3n2)CC1 | inconclusive: 50.1 µM [inhibitor, partial curve, poor fit]
Cc1ccc(C2Cn3nnc(C(=O)N4CCC(C(=O)NC5CCCCCC5)CC4)c3CO2)cc1 (stereo unspecified) | inconclusive: 89.1 µM [inhibitor, partial curve, poor fit]
C=CCNC(=O)N1CC[C@H]2CC(=O)N(c3ccccc3)CC[C@H]2C1 | inconclusive: 56.2 µM [inhibitor, single point]
CCn1cc(C(=O)N2CCOc3c(O)cc(-c4ccccc4C)cc3C2)cn1 | inconclusive: 39.8 µM [inhibitor, partial curve, poor fit]
COc1cccc(CN2CC(Oc3ccccc3C(=O)NC3CC3)C2)n1 | inconclusive: 44.7 µM [inhibitor, partial curve, poor fit]
O=C(c1ccccc1)N1CC2(CCCN2CC2CC2)Cc2ccccc21 (stereo unspecified) | inconclusive: 79.4 µM [inhibitor, partial curve]
COc1cc(OC)c(OC)cc1CN1CCc2nc(N(C)C)[nH]c(=O)c2CC1 | inactive
CCc1noc(-c2nc(-c3ccc4c(c3)OCO4)no2)n1 | inconclusive: 44.7 µM [inhibitor, partial curve, poor fit]
N#Cc1ccc(S(=O)(=O)N2CCCOCCNC(=O)[C@@H]3CCCC[C@@H]32)cc1 | inactive
COc1ccc(-n2nc(C3CCN(Cc4ccc(C#N)cc4)CC3)[nH]c2=O)cc1 | active: 22.4 µM
COc1ccc(N2CCN(c3nc(C(=O)NCc4ccco4)cs3)CC2)cc1 | inconclusive: 25.1 µM [inhibitor, full curve, poor fit]
CC(C)c1ccc(CN2CCC3(CC2)OC(=O)N(Cc2ncccn2)C3(C)c2ccccc2)cc1 (stereo unspecified) | active: 39.8 µM
NC(=O)Cn1ccc2cc(OCC3CCN(C(=O)COc4ccccc4)CC3)cnc21 | inconclusive: 100 µM [inhibitor, partial curve]
O=C(CCNc1cnc2cnccn12)NC1CCN(Cc2ccccc2)CC1 | inconclusive: 79.4 µM [inhibitor, single point]
CCN(CC)C(=O)C(NC(=O)c1ccc(OC)cc1)C1CCN(C(=O)c2ccc(F)cc2)CC1 (stereo unspecified) | inactive
COc1ccc(-c2cnc3[nH]cc(CC(=O)Nc4cccc(N(C)C)c4)c3c2)cc1 | inconclusive: 31.6 µM [inhibitor, full curve]
CCc1ccc(NC(=O)Cn2ccn3nc4c(c3c2=O)CCCCC4)cc1 | inconclusive: 89.1 µM [inhibitor, single point]
COc1ccccc1-n1c(=O)c(C(=O)NCCc2ccc(F)cc2)nc2cccnc21 | inactive
COc1ccccc1Nc1ccnc(N2CCC(C(=O)NC(C)C)CC2)n1 | inconclusive: 100 µM [inhibitor, partial curve]

Compound | Potency
CN(C)S(=O)(=O)N1CCCC1C(=O)Nc1ccc(-c2cccc(F)c2)cc1 (stereo unspecified) | inconclusive: 79.4 µM [inhibitor, partial curve, poor fit]
O=C(c1ccc(-c2cccs2)cc1)N1CCC(C(=O)N2CCC(c3ccccc3)CC2)CC1 | inconclusive: 31.6 µM [inhibitor, full curve]
CN1CCC2(Cc3ccccc3CN(C(=O)Cc3ccccc3)C2)C1 (stereo unspecified) | inconclusive: 56.2 µM [inhibitor, partial curve, poor fit]
O=C(NCCNC(=O)C1CCCC1)c1cccc(-c2ccc(C(F)(F)F)cc2)c1 | inconclusive: 5.62 µM [inhibitor, full curve, poor fit]
O=C(Nc1ccc(F)cc1)C1CCCN(Cc2cccc(-c3ccc(F)cc3F)c2)C1 (stereo unspecified) | active: 35.5 µM
c1ccc(-c2noc(-c3cncnc3N3CCN(c4ccccc4)CC3)n2)cc1 | active: 44.7 µM
CCCc1noc(-c2ccn3c(CNC(=O)Cc4ccccc4Cl)nnc3c2)n1 | inactive
C#CCNC(=O)C[C@@H]1C[C@@H](C(C)C)[C@H](CNS(C)(=O)=O)C=C1C | inactive
CCNC(=O)N1CCC(Cc2ccc(C(=O)NCCc3c[nH]c4ccccc34)cc2)CC1 | active: 25.1 µM
Cn1c(CNC(=O)Cn2nc3c(cc2=O)CCCC3)nc2ccccc21 | inactive
Nc1nc(C2CC(N)C2)cc(N2CCCN(Cc3cccs3)CC2)n1 (stereo unspecified) | active: 44.7 µM
CCOCC(=O)Nc1ccc2ncnc(N3CCCCC3)c2c1 | inconclusive: 89.1 µM [inhibitor, single point]
COCC1CN(C)CC12CCN(S(=O)(=O)c1cccs1)CC2 (stereo unspecified) | inconclusive: 56.2 µM [inhibitor, partial curve, poor fit]
COc1ccc(OCc2nc3c(n2Cc2ccccc2)C(=O)N(CC2CC2)CCN3)cc1OC | inconclusive: 50.1 µM [inhibitor, partial curve, poor fit]
Cc1ccc(NC(=O)N2CC(N(Cc3cccnc3)S(C)(=O)=O)C2)cc1C | inactive
O=C(NCc1ccc2c(c1)OCO2)c1ccc2c(c1)N(C(=O)c1ccc(F)cc1)CC2 | inconclusive: 50.1 µM [inhibitor, partial curve, poor fit]
O=C(c1ccsc1)N1CCC(Cc2nc(C3CCOCC3)no2)CC1 | inconclusive: 50.1 µM [inhibitor, partial curve, poor fit]
O=C(NC1CCCCC1)c1cn2cc(-c3ccc(C(F)(F)F)cc3)sc2n1 | inactive
O=C(Cc1ccccn1)N1CC(COc2ccccc2)C2(C1)CN(c1ccccc1)C2 (stereo unspecified) | inconclusive: 100 µM [inhibitor, partial curve]
Cc1ccc(C2c3cc(OCc4nc(C(=O)NC(C)C)co4)ccc3CCN2C(=O)C2CC2)cc1 (stereo unspecified) | inconclusive: 31.6 µM [inhibitor, partial curve, poor fit]
COc1ccc2[nH]c3c(c2c1)CCNC31CCN(C(=O)Cc2ccccc2)CC1 | inconclusive: 25.1 µM [inhibitor, partial curve, poor fit]
COc1ccccc1CNC(=O)CNC(=O)c1cccc(-c2ccsc2)c1 | inconclusive: 79.4 µM [inhibitor, single point] and inconclusive: 89.1 µM [inhibitor, partial curve, poor fit]
